From the supplement of paper PMC10126150
Values marked as one replicate rest on one cluster of the flow cell; about a third of the high ones do not repeat.

Test system: ATP
Assay: switch fluorescence ratio, 500 uM ATP over buffer (Cy3 cluster intensity, sum of 5 cycles each) (fold (ratio)); higher = stronger signal-on switching upon ATP binding; sequences stand for … in TCGTCGGCAGCGTCAGATGTGTATAAGAGACAGTTTTTTTTTTTTTTTTTTTTTTTTT…TC
Details: aptamer strand: ATP DNA aptamer (quencher-CACCTGGGGGAGTATTGCGGAGGAAGG + anchor), 100 nM annealed; ATP concentration: 500 uM; one replicate
Method in brief: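 Cy3-labelled switching-strand clusters on a modified Illumina MiSeq flow-cell were annealed to 100 nM quencher-labelled ATP aptamer, imaged in selection buffer, then imaged after 15 min with 500 uM ATP at 22 °C. Five buffer/ATP cycles ran, with NaOH stripping and re-annealing between them. The fluorescence ratio is summed target-cycle over summed buffer-cycle Cy3 intensity per cluster, averaged per switch-domain sequence. Clusters outside 100-1000 RFU were excluded.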
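Also: ATP exposure 15 min at 22 °C before imaging.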

Sequence	switch fluorescence ratio
AGCCTTGC	1.11
GAACGAATCG	1.01
TACCTACGAC	1.42
TTTTGCCATC	0.968
CACATTACAC	1.33
CGAAAATTGT	1.02
TCCATGAGGA	0.946
CGGACTGTTG	1
ATTCAACTTC	0.999
TGGATAGCAA	1.35
CGAGGGAGAC	1.46
GAAAGGTGGA	1.01
ACAAGGAAGC	1.15
ACCCTAGTGT	1.13
CTTGGTGCCG	0.997
CACTACAGTC	1.01
AGCGCTCACC	1.17
ATATGGTCT	1.01
AAGTCCAACG	1.02
TCGCTGTGAT	1.01
GCTATCACCC	1.07
TCCAGGCACG	1.03
GGGTGTGGCC	1.02
TGCACAGGGA	1.09
TTGGGGG	1.03
GATAATTTAC	1.04

Sequence	switch fluorescence ratio
AGTGGGTCCC	1.02
TGCATGGAAG	1.01
TTTACAAA	1
GTGAGAAATG	0.984
TAATAATTG	1.02
ATATAAATCC	1.01
GTACTGCGAG	0.984
GGGACCTACA	1.18
CATTTCGGGA	0.985
ATTCCCTGCC	1.3
GGAACATATT	0.993
AGGGCACGGC	1.04
TAATTATATC	0.999
TGAACGTGCA	1.03
GTAAGGGTCA	1.01
TAAAGAGACC	1.02
GCTCACGGCG	1.03
TCTAGTTAGT	0.973
CGTTTGATCA	0.99
GTAAATTCAA	1.03
ATTAGCGGCG	0.956
GCAATCCTTA	1.12
GATAAGGCTA	0.975
CCCGATATCA	0.971
ACTACTTGTG	1
TGGTTCTTGA	0.888

Sequence	switch fluorescence ratio
CTTAATCAGC	1.06
AAAATATTAG	1.02
CGTGCCTGAA	0.962
ACAAGATTAG	1.03
TTTCCAGTTT	0.977
AGCTGTTTTT	0.974
TCTATAATTT	1.04
AACTAATCTT	0.994
TAGAGTGGAA	1.03
AAGTAGTATC	0.996
TGTCGATTAA	1
CGTTTTAAGT	0.943
GGTAACGTGT	0.923
TTTAGCTGGA	0.988
GTTGAGTTT	0.98
GTGACAGTTT	1.01
CGCGGAAGTG	1.11
GTGTCGGTCT	1.04
GCGGGAGCAT	0.962
TAAGACGGTA	1
ATAAATAATG	0.982
GCCGCCCGGG	1.06
CAGTAACGGC	0.999
AAACTCTGGA	1.11
TTCGATTGGT	1.01
TTATAAGATG	0.998

Sequence	switch fluorescence ratio
CAATCAAGGC	1.07
ATTGCAGGGG	1.11
CGGCGAGAT	1.05
TCCATCTTTG	0.983
AAATGATTAA	0.984
ATCCGGTAA	1.02
AACGTTTATC	1.01
GCTGATTTTG	1.02
GGTTACTTTG	1.02
TCTTTCTCTG	1.12
CTAGGAACCG	1.04
GGCCTGTAAC	1.05
AGTGATACTA	1.03
ACATATTCGA	1.02
ACAGCGGGCC	1.04
CAAACGG	1.19
CACCCGAATA	1.18
GGGGTAATGA	0.96
TTGGGCAC	1.01
CCTCGAGAGG	1
CTGATTCGGA	1.03
GGAACCTTGC	1.47
ACAGTTTGAA	1.02
TCCTACTAGA	1.1
TTTTTAACC	0.99
GTGCAATCTG	1.13

Sequence	switch fluorescence ratio
AAGATCTAGG	0.951
TTACGTAGGT	1.1
CGTAATATGG	1.25
GAAGCGGCGA	1.02
TCATACATCT	1.05
ATTGTTCGGT	0.985
ATAATCCCC	1.17
TGAAGTGGCA	1
TATAAGTTG	1.01
CTGTGAATTG	0.999
AAAACTAGCC	0.99
CGATCGGGCA	1
CATGAATCTC	0.999
TCGAAATGCT	1.53
GTTGACGAAC	0.993
TAGGAGAGGC	0.978
ATTCGTTCCG	1.01
TCGGAGGGCG	1.01
TGCAAATAAG	1
AATCCGTGAG	1.02
GTCGTAGAGA	1.02
AACCTTATCG	1.19
TACCCGGAAA	1.01
ATGACCGTAC	1.42
CTCACGCTCA	1.65
GGGCTTGAAA	1.08

Sequence	switch fluorescence ratio
AGTTTAGTGG	0.996
TTCTTTGAAG	1
TGTGCGATCC	1.52
AAACAGGAT	0.958
TTCCTCGGTT	1.17
CGTGCAACGT	0.98
CGATTAGGAG	1.02
ATATTCGATG	0.986
TGGTTGACTG	0.95
TCCGTAGGGT	1.03
GAGACTAGTA	1.03
AATGTAACAA	0.984
TCCTATTCTC	0.974
AGTGAGTTTG	0.981
GCAGGAGTCT	1.06
GCAAATTAGG	1.04
CGCATTTGTG	1.01
TCCTTTTGGG	1
ATGCAAAGTG	0.963
TACCGAAGCT	1.09
ATTAATCTGG	1.01
ATTTATAAGA	1.04
AACGGGCGAC	1.04
GTGTATACCC	1.02
TCATAAGGG	0.963
TATTCGCGA	1.16

Sequence	switch fluorescence ratio
CGTGTTTGTC	1.05
TTCGCTGTCG	0.988
GCGAATGTTG	0.963
CTAACTTTAT	1.02
ACTTAATAAT	0.944
TGCCGACTGG	1.01
CATATCACGG	0.993
GGAGGGTTT	1.22
CGTGGCCGCT	1.03
TTTACGTCA	1.09
ACTTAATGA	1.01
ATCTCAGCTC	1.09
GAATGTCGGA	1
GGCCTTGCCC	1.01
GAGCGCAGAC	1.24
CGTCTGTACG	1.03
TTTGTGTGTG	0.988
TCCCTATTTA	1.01
TTATGTTCCG	0.97
CGTTAACCGC	1.07
CGCCCGGGC	1.04
GGCAGACATT	1.02
TATCGAGGG	1
ATATCCAGAA	0.987
GAAATAGGTG	1.12
TACGTAGAT	1.04

Sequence	switch fluorescence ratio
GCTCCAACGT	1.05
TGACAGTTTA	0.998
ACTGAGTAC	1.02
CAAGGAGCAT	1.08
GGGACTTGAG	0.945
TTCGTAAATC	1.04
GCGTTAAGGC	1.07
AAATTTCAAA	1.02
ATATTTAATA	0.986
TACCCGGGGA	1.37
GCTGCGTTTT	1
GGGCGGTGTG	1.04
GATCGGGTGG	1.01
TTGCCAGTTA	1.04
TGGCGATGGC	1
GATGGTCGC	1.08
AGTTATTT	0.997
TCCGGGCCAT	1.2
CTATCTTCGT	1
